First the molecules themselves.
T1: UNK ZnF1-3 (human, UniProt Q9C0B0 31-174)
T1 sequence: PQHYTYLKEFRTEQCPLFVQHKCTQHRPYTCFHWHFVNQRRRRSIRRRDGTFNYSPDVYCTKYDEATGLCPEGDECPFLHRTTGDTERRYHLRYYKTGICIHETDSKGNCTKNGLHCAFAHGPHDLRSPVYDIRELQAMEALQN

B1: chr7:35913284:35913285:+_ENSG00000122545_ENST00000399035|perfect_dup|FALSE|FALSE (ssRNA)
RNA: GGGAGUUCUACAGUCCGACGAUCAUCAGGCAUCUGACGUCUGUUCACUCGUGAUUCUGCAUUUAGGUAGUCCUCAAAUUUACUAUCAAUGUAGUCGAUAACAGGCUGCCAGCAAUUACUAUUAUCCACUGCAUCUCCAAAUCCCAACAGAGGAUUGAGCAUCA
B2: chr1:6324473:6324474:-_ENSG00000097021_ENST00000608083|hu_mus|FALSE|FALSE (ssRNA)
RNA: GGGAGUUCUACAGUCCGACGAUCGCCAGUCGGUGUGCUCUGGUGUCCAUGGUGGCCUUUGGGACAACACUGGGGACAUAAAUAAAGCUUUGGUGCACAGGUUUUGGGGAUGGGCCAUAGGGAACACUGCCACUCAACACUUCACAACAGAGGAUUGAGCAUCA
B3: chr4:76721835:76721836:+_ENSG00000138768_ENST00000264904|hu_mus|hu_hu_hu_mus_True|1_58 (ssRNA)
RNA: GGGAGUUCUACAGUCCGACGAUCGUUUGGCUGGGGUUUCUGAGACGCUCUGGAAUAUAACUCAUGUUUGCUAAUAAUCCUAGUUUCCUCUAUGAAAUUCUCUUUGCCAAUCCUCUUCUCUAUUAGUUGCUUUAGUUCUCUUUCCAACAGAGGAUUGAGCAUCA
B4: 45837776_45839329_1056_CDS_ENSMUSG00000036932_ENSMUST00000037349|mouse|control|control (ssRNA)
RNA: GGGAGUUCUACAGUCCGACGAUCCCGAGAGAUCUUCUCCAAGGCUCUAAAAUCUCCAAUCUUCCUGAAAAGUGUUGUUCUACUCUUCACCUCUGCUCCAGCCCUAUCGAUGGCAGACAGACUUCUUGGAGUGCCUCCCGUUGCCAACAGAGGAUUGAGCAUCA
B5: chr2:237995794:237995795:+_ENSG00000198612_ENST00000392008|hu_mus|FALSE|FALSE (ssRNA)
RNA: GGGAGUUCUACAGUCCGACGAUCUAUCCUCUUCCACAGAUAUCUUGCAUUAUUCAUGUCGUUCUGGAGCAAGUACAAAGCUAGAAGCUGACCGUACACUGGCGGUGUGGCAAUUCCUCCAGGAGCCUCGAGUUCCUGGUUCUCCAACAGAGGAUUGAGCAUCA
B6: chr6:51417264:51417265:-_ENSMUSG00000004980_ENSMUST00000090002|mus_hu|motif|central (ssRNA)
RNA: GGGAGUUCUACAGUCCGACGAUCAAGAGCUUACGGAACUGUUCCUUUUCUCUCUUUUUCCUCUCCAAAGGAACAGUUUCGGAAGUUUUCUCCAUCGCGGACUCAGUCGCUUCAGCCCGAUUUCCCGCAGCCGAGCGAGAUGAGCAACAGAGGAUUGAGCAUCA
B7: chr2:179515052:179515053:+_ENSMUSG00000000305_ENSMUST00000000314|mus_hu|mus_mus_mus_hu_False|28_58 (ssRNA)
RNA: GGGAGUUCUACAGUCCGACGAUCGCUGUCCCAUGCAGUCACCGUGAACGCCACCUGCUCGGAGGGGACCUGCAGCUCCCUAGUGGCGAAGACUGUCCCAUCUGCCCCGACUUUGAAGUCCAUGCUGUUGGUCUCAUAUUGUGUCAACAGAGGAUUGAGCAUCA
B8: chr7:148072430:148072431:+_ENSMUSG00000025487_ENSMUST00000026560|mus_mus|motif|central (ssRNA)
RNA: GGGAGUUCUACAGUCCGACGAUCAAAAGUAAGAGCCACAUUAGGAUCGGUCAUCUGUCUAACCACAUGGAGAAUUAUUUCGGCCAGGGACAGAGGGUUUACCCUGUGCUCAAACUCACUGAUGAAGUUUUCAUAAAGCUUAAUCAACAGAGGAUUGAGCAUCA
B9: chr3:64004597:64004598:-_ENSG00000163636_ENST00000295901|hu_mus|FALSE|FALSE (ssRNA)
RNA: GGGAGUUCUACAGUCCGACGAUCAGUGUAAGUCACAAAUGUCUUGUAAUCCAUGAGCUCAUACGAUGUAAACGUAGAAACAGUGUCGAGAAAGAGCUCUGCUGCCUGUUUGAAGUCACGGAUAGCCACACAAUAUAAGCCCUGCAACAGAGGAUUGAGCAUCA
B10: chr14:102516957:102516958:+_ENSG00000197102_ENST00000360184|hu_mus|FALSE|FALSE (ssRNA)
RNA: GGGAGUUCUACAGUCCGACGAUCCCAUCAACCCUUCCACACCGUUAAGGAUGAAUGAAGGUUAAAUAUUGGGAGUUUCCUAUUCCAGAAAGAGGACUGGAGAAAAGUCUAGCUUUACUCAGUGCACAGAACGGCAACUCCACGCAACAGAGGAUUGAGCAUCA
B11: chr12:85022504:85022505:+_ENSMUSG00000010608_ENSMUST00000048155|mus_hu|FALSE|FALSE (ssRNA)
RNA: GGGAGUUCUACAGUCCGACGAUCCACAAGACCAAUUUUCUUGGCUUCUGUUUCAUAUAUCAAUAAUCUCCACAUUUUGACUAUAAAAACUUCUGCUUCUUCAUCAAGUACCAUGGCAACAUCAUCUAAAAUGCUCUGGGGUGACAACAGAGGAUUGAGCAUCA
B12: chr15:100647222:100647223:+_ENSMUSG00000023032_ENSMUST00000023776|mus_mus|FALSE|FALSE (ssRNA)
RNA: GGGAGUUCUACAGUCCGACGAUCGGGCCAAAAAACUCAUGAUAGUUUUGGAACAUAGAAAAUCACACAUAUACUUUUAAACUAAGUAUCCAAAGUGAUGCCACCGCUUACAGCUCAUUUCUUCGUGUGGCUUUUACACCUGAGCAACAGAGGAUUGAGCAUCA
B13: chr13:56191178:56191179:-_ENSMUSG00000015937_ENSMUST00000016081|mus_hu|FALSE|FALSE (ssRNA)
RNA: GGGAGUUCUACAGUCCGACGAUCUUUAAGGUCAAUGUCAGCAUUGGUAGGAUUGAUUAUGGCCUCCACCUCAAAGCCGGCUAAAUUACUGAUUUCACUGUGAAUAAGGUUCAGCUUCUGGCCAAGGAAGAGGCUCUUGGUGGACAACAGAGGAUUGAGCAUCA
B14: chr16:94690476:94690477:+_ENSMUSG00000040785_ENSMUST00000117648|mus_mus|FALSE|FALSE (ssRNA)
RNA: GGGAGUUCUACAGUCCGACGAUCAGAAAUGUAAUGUAUUCAAGGUUCACAUGUCUGUAUUUGCCACUGCCUACAGGUCACUAAAAAUACCUAGUUUUUGAAUAGUUUCUAAUACAGUUAGCUUGUUUUCAGGCCACAUUACAACAACAGAGGAUUGAGCAUCA

Our source for the binding signal values is paper PMC12136788.

Some of the results follow.

This test addresses T1, UNK ZnF1-3. Put plainly: nsRBNS (natural sequence RNA bind-n-seq); RBNS binding buffer (assumed for nsRBNS): 25 mM Tris pH 7.5, 150 mM KCl, 3 mM MgCl2, 0.01% Triton X-100, 500 ug/ml BSA, 20 U/ml SUPERase-In, 4 C; UNK is unkempt and MSI1 is Musashi-1; names of the RNAs are library labels; protein concentration not given here; high values mean tight binding.
With B1, the binding signal is 0.823 enrichment R. Regarding B2, the binding signal was 1.87 enrichment R.

In turn, B3 displayed a binding signal of 0.364 enrichment R. B4 returned a binding signal of 0.808 enrichment R.

On to B5, for which the binding signal was 0.721 enrichment R.

B6 yielded a binding signal of 0.377 enrichment R. The molecule B7 yielded a binding signal of 0.737 enrichment R.

The molecule B8 came in with a binding signal of 1.87 enrichment R. B9 showed a binding signal of 0.752 enrichment R. To B10 belongs 0.913 enrichment R; to B11, 1.19 enrichment R. Next, B12: 1.04 enrichment R; B13: 0.963 enrichment R. For B14, the binding signal was found to be 0.802 enrichment R.
